According to patent US20200181257A1 (Chugai, published 2020):
Where a chain is given by its changes, count along the chain named. Numbers in names are those of the source. Read-outs that look alike come from different tables or passages of the source.

B1: TS4 (antibody)
heavy: QVQLQESGPGLVRPSQTLSLTCTVSGYSITSDHAWSWVRQPPGRGLEWIGYISYSGITTYNPSLKSRVTMLRDTSKNQFSLRLSSVTAADTAVYYCARSLARTTAMDYWGQGSLVTVSS[human IgG1 constant region with Q295M Y300E (EU numbers) not shown]
light: DIQMTQSPSSLSASVGDRVTITCRASQDISSYLNWYQQKPGKAPKLLIYYTSRLHSGVPSRFSGSGSGTDFTFTISSLQPEDIATYYCQQGNTLPYTFGQGTKVEIKRTVAAPSVFIFPPSDEQLKSGTASVVCLLNNFYPREAKVQWKVDNALQSGNSQESVTEQDSKDSTYSLSSTLTLSKADYEKHKVYACEVTHQGLSSPVTKSFNRGEC
notes: anti-IL6R IgG1, G1d with Q295M/Y300E (EU); also called TS04
B2: TS5 (antibody)
heavy: QVQLQESGPGLVRPSQTLSLTCTVSGYSITSDHAWSWVRQPPGRGLEWIGYISYSGITTYNPSLKSRVTMLRDTSKNQFSLRLSSVTAADTAVYYCARSLARTTAMDYWGQGSLVTVSS[human IgG1 constant region with Q295L (EU numbers) not shown]
light: B1 light
notes: anti-IL6R IgG1, G1d with Q295L (EU); also called TS05
B3: TS6 (antibody)
heavy: QVQLQESGPGLVRPSQTLSLTCTVSGYSITSDHAWSWVRQPPGRGLEWIGYISYSGITTYNPSLKSRVTMLRDTSKNQFSLRLSSVTAADTAVYYCARSLARTTAMDYWGQGSLVTVSS[human IgG1 constant region with K326S A330H (EU numbers) not shown]
light: B1 light
notes: anti-IL6R IgG1, G1d with K326S/A330H (EU); also called TS06
B4: TS8 (antibody)
heavy: QVQLQESGPGLVRPSQTLSLTCTVSGYSITSDHAWSWVRQPPGRGLEWIGYISYSGITTYNPSLKSRVTMLRDTSKNQFSLRLSSVTAADTAVYYCARSLARTTAMDYWGQGSLVTVSS[human IgG1 constant region with K326A A330Y (EU numbers) not shown]
light: B1 light
notes: anti-IL6R IgG1, G1d with K326A/A330Y (EU); also called TS08
B5: TS9 (antibody)
heavy: QVQLQESGPGLVRPSQTLSLTCTVSGYSITSDHAWSWVRQPPGRGLEWIGYISYSGITTYNPSLKSRVTMLRDTSKNQFSLRLSSVTAADTAVYYCARSLARTTAMDYWGQGSLVTVSS[human IgG1 constant region with L234K L235K (EU numbers) not shown]
light: B1 light
notes: anti-IL6R IgG1, G1d with L234K/L235K (EU); also called TS09
B6: TS10 (antibody)
heavy: QVQLQESGPGLVRPSQTLSLTCTVSGYSITSDHAWSWVRQPPGRGLEWIGYISYSGITTYNPSLKSRVTMLRDTSKNQFSLRLSSVTAADTAVYYCARSLARTTAMDYWGQGSLVTVSS[human IgG1 constant region with L234K L235R (EU numbers) not shown]
light: B1 light
notes: anti-IL6R IgG1, G1d with L234K/L235R (EU)
B7: TS11 (antibody)
heavy: QVQLQESGPGLVRPSQTLSLTCTVSGYSITSDHAWSWVRQPPGRGLEWIGYISYSGITTYNPSLKSRVTMLRDTSKNQFSLRLSSVTAADTAVYYCARSLARTTAMDYWGQGSLVTVSS[human IgG1 constant region with L234R L235K (EU numbers) not shown]
light: B1 light
notes: anti-IL6R IgG1, G1d with L234R/L235K (EU)
B8: TS12 (antibody)
heavy: QVQLQESGPGLVRPSQTLSLTCTVSGYSITSDHAWSWVRQPPGRGLEWIGYISYSGITTYNPSLKSRVTMLRDTSKNQFSLRLSSVTAADTAVYYCARSLARTTAMDYWGQGSLVTVSS[human IgG1 constant region with L234R L235R (EU numbers) not shown]
light: B1 light
notes: anti-IL6R IgG1, G1d with L234R/L235R (EU)
B9: TS14 (antibody)
heavy: QVQLQESGPGLVRPSQTLSLTCTVSGYSITSDHAWSWVRQPPGRGLEWIGYISYSGITTYNPSLKSRVTMLRDTSKNQFSLRLSSVTAADTAVYYCARSLARTTAMDYWGQGSLVTVSS[human IgG1 constant region with H268M D270F (EU numbers) not shown]
light: B1 light
notes: anti-IL6R IgG1, G1d with H268M/D270F (EU)
B10: TS17 (antibody)
heavy: QVQLQESGPGLVRPSQTLSLTCTVSGYSITSDHAWSWVRQPPGRGLEWIGYISYSGITTYNPSLKSRVTMLRDTSKNQFSLRLSSVTAADTAVYYCARSLARTTAMDYWGQGSLVTVSS[human IgG1 constant region with S239K N325G (EU numbers) not shown]
light: B1 light
notes: anti-IL6R IgG1, G1d with S239K/N325G (EU)
B11: TS18 (antibody)
heavy: QVQLQESGPGLVRPSQTLSLTCTVSGYSITSDHAWSWVRQPPGRGLEWIGYISYSGITTYNPSLKSRVTMLRDTSKNQFSLRLSSVTAADTAVYYCARSLARTTAMDYWGQGSLVTVSS[human IgG1 constant region with S239K N325M (EU numbers) not shown]
light: B1 light
notes: anti-IL6R IgG1, G1d with S239K/N325M (EU)
B12: TS19 (antibody)
heavy: QVQLQESGPGLVRPSQTLSLTCTVSGYSITSDHAWSWVRQPPGRGLEWIGYISYSGITTYNPSLKSRVTMLRDTSKNQFSLRLSSVTAADTAVYYCARSLARTTAMDYWGQGSLVTVSS[human IgG1 constant region with S239K N325H (EU numbers) not shown]
light: B1 light
notes: anti-IL6R IgG1, G1d with S239K/N325H (EU)
B13: TS44 (antibody)
heavy: QVQLQESGPGLVRPSQTLSLTCTVSGYSITSDHAWSWVRQPPGRGLEWIGYISYSGITTYNPSLKSRVTMLRDTSKNQFSLRLSSVTAADTAVYYCARSLARTTAMDYWGQGSLVTVSS[about 350 residues not shown]
light: B1 light
notes: anti-IL6R IgG1, G1d with P247V (EU)
B14: TS49 (antibody)
heavy: QVQLQESGPGLVRPSQTLSLTCTVSGYSITSDHAWSWVRQPPGRGLEWIGYISYSGITTYNPSLKSRVTMLRDTSKNQFSLRLSSVTAADTAVYYCARSLARTTAMDYWGQGSLVTVSS[human IgG1 constant region with T250W (EU numbers) not shown]
light: B1 light
notes: anti-IL6R IgG1, G1d with T250W (EU)
B15: TS51 (antibody)
heavy: QVQLQESGPGLVRPSQTLSLTCTVSGYSITSDHAWSWVRQPPGRGLEWIGYISYSGITTYNPSLKSRVTMLRDTSKNQFSLRLSSVTAADTAVYYCARSLARTTAMDYWGQGSLVTVSS[human IgG1 constant region with S298G (EU numbers) not shown]
light: B1 light
notes: anti-IL6R IgG1, G1d with S298G (EU)
B16: TS56 (antibody)
heavy: QVQLQESGPGLVRPSQTLSLTCTVSGYSITSDHAWSWVRQPPGRGLEWIGYISYSGITTYNPSLKSRVTMLRDTSKNQFSLRLSSVTAADTAVYYCARSLARTTAMDYWGQGSLVTVSS[human IgG1 constant region with L309D (EU numbers) not shown]
light: B1 light
notes: anti-IL6R IgG1, G1d with L309D (EU)

Experiments:
Assay in all cases: SPR, antibody captured on Protein A
[1] = biological target: T1, human Fcγ receptor hFcgRIIa (H) (human, UniProt P12318 36-217)
T1 construct: also called FcγRIIa (type H); FcγIIA
T1 sequence: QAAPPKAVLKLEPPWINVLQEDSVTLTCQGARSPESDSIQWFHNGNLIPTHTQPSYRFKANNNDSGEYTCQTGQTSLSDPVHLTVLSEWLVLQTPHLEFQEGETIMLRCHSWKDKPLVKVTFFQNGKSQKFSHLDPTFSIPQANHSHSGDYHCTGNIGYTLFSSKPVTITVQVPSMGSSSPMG
Method: (§1) The CH2 domain, which was modified in this examination, is known to be involved in interaction with several human Fcγ receptors (hereinafter denoted as hFcgRs) which affect effector functions. Therefore, the binding of TS1 and TS19 prepared by using the H chain of anti-IL6R produced in Example 2 to hFcgRs was measured, according to the method described in Reference Example 3.
(§2) Interactions between antibodies and hFcgRs (hFcgRIa, hFcgRIIa(R), hFcgRIIa(H), hFcgRIIb, hFcgRIIIa(F), and hFcgRIIIa(V)) were analyzed using Biacore T100 (GE Healthcare). HBS-EP+(GE Healthcare) was used for the running buffer, and the measurement temperature was set at 25° C. Protein A (Invitrogen) was immobilized by the amino coupling method, and an antibody of interest was captured thereon. Then, hFcγR solutions diluted using the running buffer were injected to allow interaction with the captured antibody at a flow rate of 30 μL/min for five minutes for hFcγRIa, and at a flow rate of 5 μL/min for one minute for the other hFcγRs. […] Since the hFcγR binding level depends on the amount of captured antibodies, the FcgR-binding levels were corrected so that the capture level of each antibody would be 200 RU (resonance unit) for hFcgRIa and 1000 RU (resonance unit) for the other hFcgRs. The captured antibodies were washed by allowing 10 mM glycine-HCl (pH 1.5) to react for 30 seconds at a flow rate of 30 μL/min to recycle the chip for reuse.

[2] = biological target: T2, human Fcγ receptor hFcgRIIIa (V) (human, UniProt P08637 part only)
T2 construct: also called FcγRIIIa allotype V158; FcγIIIA
Method: as §1, §2

[3] = biological target: T3, human Fcγ receptor hFcgRIa (human, UniProt P12314 16-292, limits assumed)
T3 construct: Construct used in the SPR assay is not described; also called hFcγRIa; FcγI
Method: as §1, §2

[4] = biological target: T4, human Fcγ receptor hFcgRIIb (human, UniProt P31994 43-217, limits assumed)
T4 construct: Construct used in the SPR assay is not described; also called FcγRIIb; FcγIIB
T4 sequence: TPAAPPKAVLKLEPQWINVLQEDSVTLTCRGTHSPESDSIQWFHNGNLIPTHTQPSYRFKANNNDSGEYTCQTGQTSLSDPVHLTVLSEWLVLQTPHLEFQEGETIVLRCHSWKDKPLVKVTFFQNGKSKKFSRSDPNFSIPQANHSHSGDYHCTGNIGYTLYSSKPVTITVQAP
Method: as §1, §2

[5] = biological target: T5, human Fcγ receptor hFcgRIIa (R) (human, UniProt P12318 36-217)
T5 construct: also called FcγRIIa (type R); FcγIIA
T5 chain: T1 sequence with H133R
Method: as §1, §2

[6] = biological target: T1, human Fcγ receptor hFcgRIIa (H); remark: listed apart in the source
Method: (§3) Furthermore, binding ability to hFcgRs was measured by the method described in Reference Example 3.
as §2

[7] = biological target: T2, human Fcγ receptor hFcgRIIIa (V); remark: listed apart in the source
Method: as §3, §2

[8] = biological target: T3, human Fcγ receptor hFcgRIa; remark: listed apart in the source
Method: as §3, §2

[9] = biological target: T4, human Fcγ receptor hFcgRIIb; remark: listed apart in the source
Method: as §3, §2

[10] = biological target: T5, human Fcγ receptor hFcgRIIa (R)
Method: as §3, §2

T2 sequence (P08637 other isoform, or with tags, fused parts or gaps limits assumed): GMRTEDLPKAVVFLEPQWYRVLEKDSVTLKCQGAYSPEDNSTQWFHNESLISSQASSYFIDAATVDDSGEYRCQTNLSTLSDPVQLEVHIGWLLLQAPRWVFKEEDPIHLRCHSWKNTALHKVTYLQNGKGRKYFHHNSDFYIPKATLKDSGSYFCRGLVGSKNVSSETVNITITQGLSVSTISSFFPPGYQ
T3 sequence (P12314 16-292 limits assumed): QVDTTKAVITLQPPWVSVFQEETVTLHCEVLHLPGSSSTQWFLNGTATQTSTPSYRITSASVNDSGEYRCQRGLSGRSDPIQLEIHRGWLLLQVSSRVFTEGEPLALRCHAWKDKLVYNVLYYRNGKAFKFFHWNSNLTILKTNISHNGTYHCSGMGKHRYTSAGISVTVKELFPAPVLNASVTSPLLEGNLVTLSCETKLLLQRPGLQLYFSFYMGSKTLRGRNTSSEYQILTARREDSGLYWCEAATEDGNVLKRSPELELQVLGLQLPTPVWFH

Row | Binder | binding relative to G1 (=100) [1] | binding relative to G1 (=100) [2] | binding relative to G1 (=100) [3] | binding relative to G1 (=100) [4] | binding relative to G1 (=100) [5] | binding relative to G1 (=100) [6] | binding relative to G1 (=100) [7] | binding relative to G1 (=100) [8] | binding relative to G1 (=100) [9] | binding relative to G1 (=100) [10]
1 | B1 | 106 | 99.2 | 99.3 | 220 | 148 |  |  |  |  | 
2 | B2 |  | 106 | 97.3 | 158 |  |  |  |  |  | 
3 | B3 | 120 | 90.6 | 101 | 142 | 123 |  |  |  |  | 
4 | B4 | 101 | 124 | 102 | 132 | 120 |  |  |  |  | 
5 | B5 | 0.5 | 0.5 |  | 1.4 | 1.3 |  |  |  |  | 
6 | B6 | 0.7 | 1.1 | 0.2 | 3 | 1.4 |  |  |  |  | 
7 | B7 | 1.3 | 1.4 | -0.2 | 3.4 | 1.5 |  |  |  |  | 
8 | B8 | 0.9 | 1.1 | -1 | 2.8 | 0.6 |  |  |  |  | 
9 | B9 | 29.4 | 10.1 | 87.1 |  | 3.4 |  |  |  |  | 
10 | B10 | 1 | 1.9 | 9 |  | 2.7 |  |  |  |  | 
11 | B11 | 2.3 | 1.8 | 11.5 | 10.9 |  |  |  |  |  | 
12 | B12 | 2.3 | 4.2 | 10.7 |  | 3.5 |  |  |  |  | 
13 | B13 |  |  |  |  |  | 110 | 103 | 101 | 113 | 103
14 | B14 |  |  |  |  |  | 127 | 96.9 | 99.6 | 148 | 124
15 | B15 |  |  |  |  |  | 27.4 | 58.9 | 99.2 | 40.8 | 55.8
16 | B16 |  |  |  |  |  | 79.2 | 69.1 | 67 | 74.3 | 76.7
